# PubChem BioAssay AID1508642 (National Center for Advancing Translational Sciences (NCATS), 2021)
# In all, about 43,000 compounds went through this assay and about 200 (0.47%) were called active. Not shown: some 12% with an inconclusive outcome. The call rests on the fitted dose curve; in most records, active means well fitted cell-killing curve with a large enough effect; inconclusive means small, poorly fitted or top-dose-only effect, or effect the other way; inactive means flat fitted curve, though single readings scatter. The list shows a part of the results.
# Assay: Cell viability qHTS assay in S16 Pmp22-F2sN cells; further: nearly all actives have a fitted effect of over 65% in size
# Settings: S16 Pmp22-F2sN Schwann cells (luciferase reporters placed in the Pmp22 gene) viability, CellTiter-Glo, 24 h; series mostly up to 57.5 µM; activity change, negative = cytotoxicity: at the top concentration
# Procedure, shortened: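 Rat S16 Schwann reporter line, 24 h treatment with library compounds delivered at 23 nL per well. Cell viability by CellTiter-Glo luminescence.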
# On the % scale 0 is the no-effect control and ±100 the full control effect; potency means the concentration at half of the fitted maximal effect.
Compound,"activity change, negative = cytotoxicity",Potency
O=c1ccc2cc(S(=O)(=O)NCc3ccc(Br)cc3)ccc2[nH]1,inactive: 9.56%,
Cc1ccc(NC(=O)CSc2nccn2Cc2ccco2)cc1Cl,inactive: -14.1%,
CCC(=O)N1CCc2cc(S(=O)(=O)NC(CC(C)C)C(=O)NCCc3cccc(C)c3)ccc21 (centres undefined),inactive: -16.3%,
COc1cccc(NC(=O)CSCc2cc(=O)c3ccc(C)c(C)c3[nH]2)c1,inactive: 9.67%,
Cn1c(=O)c2c(n3c4ccccc4nc13)NC(=O)CC2c1cccc(F)c1 (centres undefined),inactive: 1.89%,
Cc1cccc(-n2ncc(C(=O)N3CCc4ccccc4C3)c2C2CCN(C(=O)OC(C)(C)C)CC2)c1,inactive: -9.84%,
CSc1ncc2c(n1)-c1ccccc1N(Cc1ccc(F)cc1)S2(=O)=O,inactive: -9.9%,
COC(=O)c1nnn(CC(=O)Nc2cc(F)ccc2F)c1C(=O)OC,inactive: -9.36%,
O=C(NCCc1ccc(Cl)cc1)C(=O)NCC(c1ccco1)S(=O)(=O)c1cccs1 (centres undefined),inactive: -11.2%,
Cc1nn2c(=O)cc(COC(=O)c3cccc(NC(=O)COc4ccc(C)c(C)c4)c3)nc2s1,inactive: -15.4%,
Cc1c(-c2nsc(NC(=O)c3cccs3)n2)nnn1-c1ccc(Cl)cc1,inactive: -3.72%,
CCSc1ncc(Cl)c(C(=O)N(Cc2ccccc2Cl)C2CCS(=O)(=O)C2)n1 (centres undefined),inactive: -18.8%,
O=C(C1CCN(S(=O)(=O)c2cccs2)CC1)N1CCN(c2cccc(Cl)c2)CC1,inactive: 6.71%,
CCOc1ccc(-c2cc3c(=O)n(CC(=O)NCc4ccc(OC)cc4)ccn3n2)cc1,inactive: -1.14%,
CCS(=O)(=O)N1CCc2cc(C(=O)Nc3cccc(C)c3C)ccc21,inactive: 0.208%,
CCCc1ccc(OC(=O)CSc2nnc(-c3cccs3)o2)cc1,inactive: 1.52%,
CSc1ccc(CCNC(=O)CCn2c(=O)c3cccn3c3cccnc32)cc1,inactive: 21.5%,
Cc1ccc(OCCSc2nc3ccc(NC(=O)c4ccc5c(c4)OCO5)cc3s2)cc1,inactive: -0.442%,
O=C(Nc1ccc(F)cc1)C1CCN(c2nc3ccccc3n3cccc23)CC1,inactive: 3.99%,
COc1ccc(NC(=O)c2cc3c(=O)n(C)c4ccccc4c3s2)cc1Cl,inactive: 3.85%,
CCOC(=O)C1CCCN(C(=O)c2c(C)nn(-c3ccc(F)cc3)c2-n2cccc2)C1 (centres undefined),inactive: 5.16%,
Cc1nc(-n2nc(C)c(Cc3ccccc3Cl)c2C)sc1C(=O)N1CCC(C)CC1,inactive: 1.71%,
O=C(CCn1cccn1)NCc1ccc(Cl)cc1,inactive: -11%,
CCOC(=O)C(CC)Sc1ncnc2sc3c(c12)CCCC3 (centres undefined),inactive: 1.92%,
Cc1cccc(NC(=O)CSc2nnc(N)s2)c1,inactive: -1.32%,

Compound,"activity change, negative = cytotoxicity",Potency
O=C(NC1(C(F)(F)F)NC(=O)N(CCc2ccccc2)C1=O)c1ccccc1Cl (centres undefined),inactive: 7.42%,
COc1ccccc1Cn1c(CNS(=O)(=O)c2ccc3c(c2)CCCC3)nc2cccnc21,inactive: -8.67%,
COc1ccccc1N1CCN(C(=O)CSc2nc3ccccc3nc2Cc2ccc(F)cc2)CC1,inactive: -5.67%,
Cc1csc2nc(COc3ccc(NC(=O)COc4ccccc4F)cc3)cc(=O)n12,inactive: 1.86%,
Cn1c(CNC(=O)CSc2n[nH]c(-c3ccccc3)n2)nc2ccccc21,inactive: 3.88%,
CCCCCOC(=O)CSc1nc2sc3c(c2c(=O)n1Cc1ccccc1)CC(C)(C)OC3,inactive: -0.412%,
CC(C)(C)C1CCc2c(sc(NC(=O)Cn3nnc(-c4cccc(C(F)(F)F)c4)n3)c2C#N)C1 (centres undefined),inactive: 1.05%,
CCCCc1nn2c(=O)cc(COC(=O)c3ccc(NC(=O)c4cccs4)cc3)nc2s1,inactive: 9.44%,
CCN1CCSc2ccc(C(=O)NCc3cccc(F)c3)cc21,inactive: -9.61%,
O=C(Cn1c(=O)n(-c2ccc(Cl)cc2)c(=O)c2c3c(sc21)CCC3)c1ccc(F)cc1,inactive: -2.57%,
Cc1ccccc1NCc1cccn1-c1nnc(N2CCOCC2)s1,inactive: -2.02%,
O=[N+]([O-])c1cc(-c2nc(-c3ccccc3)no2)ccc1N1CCCC1,inactive: -0.846%,
COc1cccc(CNC(=O)CCc2nnc3n(CC(C)C)c(=O)c4ccccc4n23)c1,inactive: 12%,
Cc1ccc(NC(=O)CSc2nnc3[nH]c(=O)cc(C)n23)cc1Cl,inactive: -1.2%,
CC(C)CC(=O)N1CC(=O)Nc2ccc(F)cc2C1c1ccccc1 (centres undefined),inactive: 20.8%,
CCC(Sc1nc2c(sc3ccccc32)c(=O)n1CCCC(=O)NC1CCCC1)C(=O)Nc1cccc(OC)c1 (centres undefined),inactive: 16.9%,
CC(C)OCCCn1c(SCC(=O)Nc2ccc(F)cc2)nc2c(sc3ccccc32)c1=O,inactive: 13.4%,
Cc1nc2sccn2c(=O)c1S(=O)(=O)Nc1ccc(N2CCN(S(C)(=O)=O)CC2)cc1,inactive: -19.4%,
CCC(=O)N1c2ccccc2CC1C(=O)NCCN1CCN(c2cccc(C)c2C)CC1 (centres undefined),inactive: 9.68%,
O=C(CSc1nc(-c2ccccc2)[nH]c1-c1ccccc1)Nc1ccc2c(c1)OCO2,,active: 35.5 µM
CCOc1cc(C#N)c(NC(=O)c2cccc(S(=O)(=O)N3CCOCC3)c2)cc1OCC,inactive: 0.0399%,
CCC(=O)N1CCc2cc(CNC(=O)Nc3ccccc3Cl)ccc21,inactive: -10.2%,
O=C(CCNS(=O)(=O)c1ccc2c(c1)CCCC(=O)N2)NCc1ccccc1Cl,inactive: 12.9%,
COc1cccc(NC(=O)CN(C)S(=O)(=O)c2cccs2)c1,inactive: 6.07%,
